Measurements taken from patent US20250214977A1, “STAT6 INHIBITORS AND USES THEREOF” (Kymera Therapeutics, Inc., priority 2024, published 2025).

What follows are molecules tested against T1, biotinylated truncated STAT6 (123-632)-avi (Homo sapiens, UniProt P42226) (assay: Homogenous Time-Resolved Fluorescence (HTRF) binding assay). Settings: 0.15 nM biotinylated truncated STAT6 (123-632)-avi, 20 nM fluorescein-labeled probe, 30 minutes room temperature.
T1 sequence (P42226 123-632 limits assumed): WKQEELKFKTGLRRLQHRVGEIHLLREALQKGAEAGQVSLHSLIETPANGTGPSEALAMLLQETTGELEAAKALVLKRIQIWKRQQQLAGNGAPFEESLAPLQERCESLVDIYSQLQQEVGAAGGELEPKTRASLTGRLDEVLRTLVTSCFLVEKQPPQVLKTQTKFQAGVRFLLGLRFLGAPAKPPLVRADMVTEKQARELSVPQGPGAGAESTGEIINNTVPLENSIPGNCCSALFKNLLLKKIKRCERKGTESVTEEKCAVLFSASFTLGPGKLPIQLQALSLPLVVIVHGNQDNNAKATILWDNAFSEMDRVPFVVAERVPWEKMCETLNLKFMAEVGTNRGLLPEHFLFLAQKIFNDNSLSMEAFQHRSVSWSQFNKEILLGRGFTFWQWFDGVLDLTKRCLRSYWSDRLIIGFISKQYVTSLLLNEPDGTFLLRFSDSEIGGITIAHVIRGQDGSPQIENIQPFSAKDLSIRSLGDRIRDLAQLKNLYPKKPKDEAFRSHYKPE
With CCc1ccc(-c2cc(C(=O)N3Cc4cnn(C)c4C3)cc3cc(C4=CCCN(C(=O)CC(=O)O)C4)n(CC(C)C)c23)c(C)n1 [Example I-1223] the IC50 was < 0.1 µM. CCc1nc(C)ccc1-c1cc(C(=O)N2CCN(C3CC3)CC2)cc2cc(C3=CCCN(C(=O)CCn4ccnn4)C3)n(CC3CC3)c12 [Example I-1227] was tested, and the IC50 was < 0.1 µM. In the case of CCc1nc(C)ccc1-c1cc(C(=O)N2CCN(c3ncc(F)cc3OC)CC2)cc2cc(C3=CCCN(C(=O)C(=O)O)C3)n(CC3CC3)c12 [Example I-1228, 2-(3-(1-(cyclopropylmethyl)-7-(2-ethyl-6-methylpyridin-3-yl)-5-(4-(5-fluoro-3-methoxypyridin-2-yl)piperazine-1-carbonyl)-1H-indol-2-yl)-5,6-dihydropyridin-1(2H)-yl)-2-oxoacetic acid], the IC50 is reported as < 0.1 µM. For CCc1nc(C)ccc1-c1cc(C(=O)N2Cc3cnn(C)c3C2)cc2c(F)c(C3=CCCN(C(=O)CCn4ccnn4)C3)n(CC3CC3)c12 [Example I-1229], the IC50 was > 100 µM. For CN(C)C(=O)c1cc2ccc(C3=CCCN(C(=O)CCn4cc(C(N)=O)cn4)C3)c(F)c2[nH]1 [Example I-1230], the IC50 was 1 to 10 µM. For CCc1ccncc1-c1cc(C2=CCCN(C(=O)CCn3ccc(C(N)=O)n3)C2)c(F)c2[nH]c(C(=O)N(C)C)cc12 [Example I-1231], the IC50 was < 0.1 µM. In the case of CN(C)C(=O)c1cc2ccc(C3=CCCN(C(=O)CCc4cccc(C(N)=O)c4)C3)c(F)c2[nH]1 [Example I-1232], the IC50 is reported as 0.1 to 1 µM. CN(C)C(=O)c1cc2ccc(C3=CCCN(C(=O)CCc4ccc(C(N)=O)cc4)C3)c(F)c2[nH]1 [Example I-1233] was tested, and the IC50 was < 0.1 µM. CN(C)C(=O)c1cc2ccc(C3=CCCN(C(=O)Cc4cccc(C(N)=O)c4)C3)c(F)c2[nH]1 [Example I-1234] showed an IC50 of 0.1 to 1 µM. In the case of CCc1cc(C)ncc1-c1cc(C2=CCCN(C(=O)CCn3ccnn3)C2)nc2[nH]c(C(=O)N3CCN(c4ncc(F)cc4OC)CC3)cc12 [Example I-1237], the IC50 is reported as 0.1 to 1 µM. For CCc1cc(C)ncc1-c1cc(C2=CCCN(C(=O)CCc3nnn[nH]3)C2)c(F)c2[nH]c(C(=O)N3CCN(c4ncc(F)cc4OC)CC3)cc12 [Example I-1238], the IC50 was 1 to 10 µM. CC(C)C1C=C(c2ccc3cc(C(=O)N(C)C)[nH]c3c2F)CN(C(=O)CCn2ccc(C(N)=O)n2)C1 (stereo not shown) [Example I-1247] gave an IC50 of 0.1 to 1 µM. For CN(C)C(=O)c1cc2ccc(C3=CCCN(C(=O)Cn4cc(C(N)=O)cn4)C3)c(F)c2[nH]1 [Example I-1251], the IC50 was 10 to 100 µM. CN(C)C(=O)c1cc2ccc(C3=CCCC(C(=O)Nc4cccc(C(N)=O)c4)C3)c(F)c2[nH]1 (stereo not shown) [Example I-1252] gave an IC50 of 10 to 100 µM. Work on CCc1ccncc1-c1cc(C(=O)N2Cc3cnn(C)c3C2)cc2sc(N3CCCCC3=O)nc12 [Example I-1254] yielded an IC50 of 10 to 100 µM. CCc1ccncc1-c1cc(C(=O)N2Cc3cnn(C)c3C2)cc2cc(C3CCCN(S(N)(=O)=O)C3)n(CC3CC3)c12 (stereo not shown) [Example I-1255] showed an IC50 of 10 to 100 µM. With CCc1cnccc1-c1cc(C(=O)N2Cc3cnn(C)c3C2)cc2c(F)c(C3CCCN(C(=O)CC(=O)O)C3)n(CC3CC3)c12 (stereo not shown) [Example I-1257] the IC50 was 10 to 100 µM. For Cc1nnsc1C(=O)N1CCC=C(c2cc3cc(C(=O)N(C)C)ccc3[nH]2)C1 [Example I-1259], the IC50 was 10 to 100 µM. COc1ccncc1-c1cc(C(=O)N2Cc3cnn(C)c3C2)cc2cc(C3CCCN(C(=O)CCn4ccnn4)C3)[nH]c12 (stereo not shown) [Example I-1262] was tested, and the IC50 was 10 to 100 µM. O=C(O)c1cc2cc(C3=CCCN(C(=O)CCn4ccnn4)C3)ccc2o1 [Example I-1263] showed an IC50 of 10 to 100 µM. Work on COc1ccccc1-c1cc(C2=CCCN(C(=O)CCn3ccnn3)C2)c(F)c2cc(C(F)(F)F)oc12 [Example I-1264] yielded an IC50 of 10 to 100 µM. In the case of COc1ccccc1-c1cccc2c(F)c(C3=CCCN(C(=O)CCn4ccnn4)C3)[nH]c12 [Example I-1267], the IC50 is reported as 10 to 100 µM. In the case of COc1ccccc1-c1cc(C(=O)N(C)C)cc2cc(C3CCCN(C(C)=O)C3)[nH]c12 (stereo not shown) [Example I-1268], the IC50 is reported as 10 to 100 µM. Molecule O=C(CCn1ccnn1)N1CCC=C(c2ccc3oc(-c4cnc5[nH]ccc5c4)cc3c2)C1 [Example I-1275] has an IC50 of 10 to 100 µM. For O=C(CCn1ccnn1)N1CCC=C(c2ccc3oc(-c4cnc(C5CC5)nc4)cc3c2)C1 [Example I-1276], the IC50 was 10 to 100 µM. With COc1ccccc1-c1cc(C2=CCCN(C(=O)CCn3ccnn3)C2)c(F)c2[nH]ccc12 [Example I-1277] the IC50 was 10 to 100 µM. O=C(CCn1ccnn1)N1CCC=C(c2ccc3oc(-c4cc(F)ccc4O)cc3c2)C1 [Example I-1279] was tested, and the IC50 was 10 to 100 µM. Cc1cc(-c2cc3cc(C4=CCCN(C(=O)CCn5ccnn5)C4)ccc3o2)ccc1F [Example I-1280] gave an IC50 of 10 to 100 µM. With O=C(CCn1ccnn1)N1CCC=C(c2ccc3oc(C4=CCCC4)cc3c2)C1 [Example I-1281] the IC50 was 10 to 100 µM. With O=C(CCn1ccnn1)N1CCC=C(c2ccc3oc(-c4cnoc4)cc3c2)C1 [Example I-1282] the IC50 was 10 to 100 µM. For O=C(CCn1ccnn1)N1CCC=C(c2ccc3oc(-c4ccncc4)cc3c2)C1 [Example I-1283], the IC50 was 10 to 100 µM. CCOc1cc(F)ccc1-c1cc2cc(C3=CCCN(C(=O)CCn4ccnn4)C3)ccc2o1 [Example I-1284] gave an IC50 of 10 to 100 µM. For Cn1ncc2ccc(-c3cc4cc(C5=CCCN(C(=O)CCn6ccnn6)C5)ccc4o3)cc21 [Example I-1285], the IC50 was 10 to 100 µM. O=C(CCn1ccnn1)N1CCC=C(c2ccc3oc(-c4cccc(CCN5CCOCC5)c4)cc3c2)C1 [Example I-1287] gave an IC50 of 10 to 100 µM. Cc1c(-c2cc3cc(C4=CCCN(C(=O)CCn5ccnn5)C4)ccc3o2)cnn1C [Example I-1288] was tested, and the IC50 was 10 to 100 µM. With Cc1ccc(-c2cc3cc(C4=CCCN(C(=O)CCn5ccnn5)C4)ccc3o2)cn1 [Example I-1289] the IC50 was 10 to 100 µM. With CN1CCN(c2cccc(-c3cc4cc(C5=CCCN(C(=O)CCn6ccnn6)C5)ccc4o3)c2)CC1 [Example I-1290] the IC50 was 10 to 100 µM. With O=C(CCn1ccnn1)N1CCC=C(c2ccc3oc(-c4ccccc4CN4CCOCC4)cc3c2)C1 [Example I-1291] the IC50 was 10 to 100 µM. CN(C)C(=O)c1ccc2oc(C3=CCCN(C(=O)CCn4ccnn4)C3)nc2c1 [Example I-1292] was tested, and the IC50 was 10 to 100 µM. O=C(CCn1ccnn1)N1CCCC(n2ccc3cc(-n4cccn4)ccc32)C1 (stereo not shown) [Example I-1299] was tested, and the IC50 was 10 to 100 µM. CC(=O)N(C)c1ccc2c(ccn2C2CCCN(C(=O)CCn3ccnn3)C2)c1 (stereo not shown) [Example I-1300] was tested, and the IC50 was 10 to 100 µM. O=C(CCn1ccnn1)N1CCCC(n2ccc3cc(-c4ncccn4)ccc32)C1 (stereo not shown) [Example I-1301] showed an IC50 of 10 to 100 µM. O=C(CCn1ccnn1)N1CCCC(n2ccc3cc(N4CCCCC4=O)ccc32)C1 (stereo not shown) [Example I-1302] was tested, and the IC50 was 10 to 100 µM. With O=C(CCn1ccnn1)N1CCCC(n2ccc3cc(-n4ccccc4=O)ccc32)C1 (stereo not shown) [Example I-1303] the IC50 was 10 to 100 µM. O=C(CCn1ccnn1)N1CCCC(n2ccc3cc(N4CCCC4=O)ccc32)C1 (stereo not shown) [Example I-1304] gave an IC50 of 10 to 100 µM. In the case of O=C(CCn1ccnn1)N1CCCC(n2ccc3cc(-c4ncco4)ccc32)C1 (stereo not shown) [Example I-1305], the IC50 is reported as 10 to 100 µM. O=C(CCn1ccnn1)N1CCCC(n2ccc3cc(-c4cocn4)ccc32)C1 (stereo not shown) [Example I-1306] gave an IC50 of 10 to 100 µM. Work on O=C(CCn1ccnn1)N1CCCC(n2ccc3cc(-c4ccccn4)ccc32)C1 (stereo not shown) [Example I-1307] yielded an IC50 of 10 to 100 µM. For CC(=O)Nc1ccc2c(ccn2C2CCCN(C(=O)CCn3ccnn3)C2)c1 (stereo not shown) [Example I-1308], the IC50 was 10 to 100 µM. O=C(CCn1ccnn1)N1CCC=C(c2ccc3oc(Oc4ccccn4)cc3c2)C1 [Example I-1309] was tested, and the IC50 was 10 to 100 µM. Work on CN(C)Cc1cc2ccc(C3=CCCN(C(=O)CCn4ccnn4)C3)cc2[nH]1 [Example I-1310] yielded an IC50 of 10 to 100 µM. In the case of O=C(CCn1ccnn1)N1CCC=C(c2ccc3cc(-c4cccnn4)[nH]c3c2)C1 [Example I-1313], the IC50 is reported as 10 to 100 µM. With CN(C)C(=O)c1nc2cc(C3=CCCN(C(=O)CCn4ccnn4)C3)ccc2s1 [Example I-1315] the IC50 was 10 to 100 µM. With CN(C)C(=O)c1nc2cc(C3=CCCN(C(=O)CCc4ccccn4)C3)ccc2[nH]1 [Example I-1317] the IC50 was 10 to 100 µM. With CN(C)C(=O)c1nc2cc(C3=CCCN(C(=O)CCn4ccnn4)C3)ccc2o1 [Example I-1319] the IC50 was 10 to 100 µM. With CN(C)C(=O)c1nc2ccc(C3=CCCN(C(=O)CCn4ccnn4)C3)cc2o1 [Example I-1321] the IC50 was 10 to 100 µM. With CCc1nc(C)ccc1-c1cc(C2=CCCN(C(=O)CCn3ccnn3)C2)c(F)c2sc(-n3c(C)nn(C)c3=O)cc12 [Example I-1326] the IC50 was < 0.1 µM. CCc1ccc(-c2cc(-n3c(C)nn(C)c3=O)cc3cc(C4=CCCN(C(=O)CCn5ccnn5)C4)sc23)c(C)n1 [Example I-1327] was tested, and the IC50 was 0.1 to 1 µM. Work on CN(C)C(=O)c1cc2ccc(C3=CCCN(C(=O)NCc4cccc(C(N)=O)c4)C3)c(F)c2[nH]1 [Example I-1328] yielded an IC50 of 0.1 to 1 µM. In the case of CN(C)C(=O)c1cc2ccc(C3=CCCN(C(=O)Nc4cccc(C(N)=O)c4)C3)c(F)c2[nH]1 [Example I-1329], the IC50 is reported as 1 to 10 µM. With CCc1nc(C)ccc1-c1cc(-n2c(C)nn(C)c2=O)cc2sc(C3=CCCN(C(=O)CCn4ccnn4)C3)cc12 [Example I-1330] the IC50 was < 0.1 µM. For CN(C)C(=O)c1cc2ccc(C3=CCCN(C(=O)CCn4ccc(C(N)=O)n4)C3)c(F)c2[nH]1 [Example I-1332], the IC50 was < 0.1 µM. Work on Cc1nn(C)c(=O)n1-c1ccc2c(c1)cc(C1=CCCN(C(=O)CCn3ccnn3)C1)n2CC1CC1 [Example I-1333] yielded an IC50 of 1 to 10 µM. In the case of CCc1ccncc1-c1cc(C2CCCN(S(C)(=O)=O)C2)c(F)c2[nH]c(C(=O)N3Cc4cnn(CC)c4C3)cc12 (stereo not shown) [Example I-1334], the IC50 is reported as 10 to 100 µM.
